Laboratory results published in PubChem BioAssay AID504832 (National Center for Advancing Translational Sciences (NCATS), 2011).
Out of some 310,000 compounds screened, about 18,000 (5.8%) were called active. This list was built around the results that the source calls inconclusive (neither active nor inactive); the mix of calls is not that of the screen. Calls come from the whole dose curve; as a rule, active = well fitted inhibition curve with a large enough effect; inconclusive = small, poorly fitted or top-dose-only effect, or another doubt; inactive = no such curve, though single readings can be large or run the other way. No potency is given beside an inconclusive call; the fits are too rough.

experiment: Primary qHTS for delayed death inhibitors of the malarial parasite plastid, 48 hour incubation; details: P. falciparum luciferase growth in erythrocytes; series mostly up to 28.7 µM
In short: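 Cell-based growth assay: transgenic P. falciparum expressing firefly luciferase, cultured in red cells within RPMI 1640 containing 0.5% w/v Albumax, 24 mM bicarbonate and gentamycin. A drop in luciferase activity indicates inhibition.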
% is set by controls: 0 for no effect and ±100 for the full control effect; potency is the fitted concentration of half-maximal effect; tags give direction and shape of the fitted curve.

Structure (SMILES)	Potency	activity change, negative = inhibition
Cc1cc(NC(=O)CN2CCN(c3cccc(Cl)c3)CC2)no1	inconclusive [inhibitor, full curve, poor fit]	
Cc1cc(NC(=O)COC(=O)c2cc([N+](=O)[O-])ccc2N2CCOCC2)ccc1Br	inconclusive [inhibitor, single point]	
O=[N+]([O-])c1ccc(CN2CCN(c3ccc4ccccc4n3)CC2)cc1	inactive	
CCN1C(=O)C(=O)N(CC(=O)Nc2ccccc2Oc2ccccc2)C1=O	inconclusive [inhibitor, single point]	
CC(=O)Nc1sc(/C(C#N)=C/c2ccc(Cl)c(Cl)c2)nc1-c1ccc(C)cc1	inactive	
COC(=O)CCN(c1ccccc1)S(=O)(=O)c1cc(-c2cc(C)no2)ccc1OC	inconclusive [inhibitor, partial curve, poor fit]	
CCCn1c(N)c(N(CCOC)C(=O)c2cccc(S(=O)(=O)N3CCCc4ccccc43)c2)c(=O)[nH]c1=O	inconclusive [inhibitor, single point]	
CCOC(=O)C1(CCc2ccccc2)CCN(Cc2ccccn2)CC1	inconclusive [inhibitor, full curve]	
CCCCCc1ccc(-c2cn(Cc3ccc(C)cc3)nn2)cc1	inconclusive [inhibitor, single point]	
COc1cc(OC)c(Nc2cc(C)nc3nc(C)nn23)cc1Cl	inconclusive [inhibitor, partial curve]	
O=Cc1cn(-c2ccc(F)cc2)c2ccccc12	inactive	
CC(=O)N1CCc2cc(S(=O)(=O)CCC(=O)NCc3ccc(Cl)cc3)ccc21	inconclusive [inhibitor, single point]	
CN(CC(=O)Nc1ccc(Cl)c(C(F)(F)F)c1)C(=O)CCCc1nc2ccccc2c(=O)[nH]1	inconclusive [inhibitor, single point]	
CC(=O)N1c2ccc(S(=O)(=O)N3CCCC(C(=O)Nc4cccc(Cl)c4)C3)cc2CC1C (stereo not given)	inconclusive [inhibitor, partial curve]	
CCS(=O)(=O)Nc1ccc(C2=NN(S(C)(=O)=O)C(c3cccs3)C2)cc1 (stereo not given)	inactive	
Nc1nc(-c2ccc(NC(=O)c3ccco3)cc2)cs1	inactive	
CCCC(c1nnnn1Cc1ccc(F)cc1)N1CCN(C2CCCCC2)CC1 (stereo not given)	inconclusive [inhibitor, single point]	
COc1ccc(S(=O)(=O)N(CC(=O)NC2CC2)Cc2ccccc2)cc1	inactive	
COc1ccccc1N(Cc1ccccc1)S(=O)(=O)c1cc(C(=O)O)ccc1Cl	inactive	
CCCCC(C(=O)NCCC(C)C)N(CCCN1CCOCC1)C(=O)c1snc(C(N)=O)c1N (stereo not given)	inconclusive [inhibitor, partial curve, poor fit]	
COc1ccc(CNC(=O)c2cccc3c2C(=O)N(Cc2cccnc2)C3)cc1	inconclusive [inhibitor, single point]	
COc1ccc(C(=O)NC2CC2)cc1OC1CCN(Cc2ccc(Cl)cc2)CC1	inconclusive [inhibitor, single point]	

Structure (SMILES)	Potency	activity change, negative = inhibition
CCCCn1c(-c2ccc(OC(F)F)cc2)nc2c1c(=O)[nH]c(=O)n2CC(C)C	inconclusive [inhibitor, partial curve]	
CCCc1cc(C(N)=O)c(NC(=O)c2cc(C)on2)s1	inactive	
CCN(CC)c1nc(N)c2c(N)n(-c3ccccc3C)c(=S)c(C#N)c2c1C#N	inactive	
CC(=O)Nc1ccc(-c2cc(N)n(-c3ccccc3)n2)cc1	inactive	
Cc1nn(CC(=O)NCc2cccnc2)c(C)c1[N+](=O)[O-]	inactive	
CCOC(=O)C1CC(c2ccc(Cl)cc2)=NNC1=O (stereo not given)	inconclusive [inhibitor, single point]	
O=c1c(=Nc2ccccc2O)c(=O)c2ccccc12	inactive	
COCCCNC(=O)c1oc2ccc(S(=O)(=O)N(C)C3CCCCC3)cc2c1C	inconclusive [inhibitor, single point]	
COc1ccc(Br)cc1C(=O)NC(=S)Nc1cc(-c2nc3ccccc3[nH]2)ccc1C	inconclusive [inhibitor, single point]	
Cc1ccc2cc(CN(C(=O)c3ccncc3)C(C)C)c(=O)[nH]c2c1	inconclusive [inhibitor, partial curve]	
CCC1(C)CC(CC(=O)O)(c2ccccc2OC)CCO1 (stereo not given)	inactive	
C/C(=N\Nc1nc2ccccc2nc1C)c1ccccc1O	inconclusive [inhibitor, full curve]	
COCCn1c(SCC(=O)Nc2cc(C)on2)nc2ccccc21	inactive	
COc1cc(C)c2c(c1C=O)Oc1c(c(C)c(O)c3c1C(O)OC3=O)OC2=O (stereo not given)	inconclusive [inhibitor, partial curve, poor fit]	
CCOc1ccccc1N=C1SC(CC(=O)Nc2ccc(OC)cc2OC)C(=O)N1CCC1=CCCCC1 (stereo not given)	inconclusive [inhibitor, single point]	
COc1ccc(C(=O)/C=C/c2ccc(OC)c(O)c2)c(F)c1	inconclusive [inhibitor, single point]	
COc1ccc(/C=N/Nc2nc3ccccc3[nH]2)c(OC)c1OC	inconclusive [inhibitor, single point]	
COc1ccc(/C=N/NC2=NS(=O)(=O)c3ccccc32)cc1	inconclusive [inhibitor, single point]	
CCC(C)(C)n1nnnc1C(c1cccnc1)N1CCCC(C)C1 (stereo not given)	inconclusive [inhibitor, single point]	
Fc1ccc(C2CCNCC2COc2ccc3c(c2)OCO3)cc1 (stereo not given)	inconclusive [inhibitor, single point]	
COc1ccc(C(=O)NC(=S)Nc2ccc3c4c(cccc24)CC3)cc1OC	inactive	
CN(C(=O)c1ccc(NC(=O)Cc2ccc(NC(=O)C3CCCN(C(=O)c4ccccc4)C3)cc2)cc1)C1CC1 (stereo not given)	inconclusive [inhibitor, partial curve]	

Structure (SMILES)	Potency	activity change, negative = inhibition
Cc1ccc(-c2n[nH]c(=O)c3ccccc23)cc1S(=O)(=O)Nc1ccccc1	inconclusive [inhibitor, single point]	
COc1ccc(OC)c(NC(=O)c2cccc(NC(=O)c3ccccc3)c2)c1	inactive	
C=CCNC(=O)C1CCN(c2ccc(S(=O)(=O)N3CCOCC3)cc2[N+](=O)[O-])CC1	inconclusive [inhibitor, single point]	
CCn1c(=O)c(C(=O)NNC(=O)c2ccccc2Cl)c(O)c2ccccc21	inactive	
CCC(C)(C)NC(=O)C(c1cccc(OC)c1OC)N(Cc1ccc(OC)cc1)C(=O)CCC(=O)Nc1cc(C)on1 (stereo not given)	active: 8.28 µM	
COc1cccc(C2=NOC(C(=O)NCCN3CCOCC3)C2)c1 (stereo not given)	inconclusive [inhibitor, single point]	
CCOC(=O)C1CCN(C(=O)CN(c2ccc3c(c2)OCCO3)S(=O)(=O)c2ccccc2)CC1	inconclusive [inhibitor, single point]	
COc1ccc(/C=C/c2nc(C)c(-c3ccccc3)c(=O)[nH]2)cc1OC	inconclusive [inhibitor, single point]	
CC(C)Oc1ccc(CNC(=S)N/N=C/c2ccc([N+](=O)[O-])cc2)cc1	inconclusive [inhibitor, single point]	
CC(NC(=O)c1ccc(N(C)C)cc1)C(c1cccs1)N1CCN(C)CC1 (stereo not given)	inactive	
COc1ccc(C2CC(c3ccccc3)=NN2S(=O)(=O)c2ccc(C)cc2)c(OC)c1 (stereo not given)	inconclusive [inhibitor, single point]	
COC(=O)c1ccc(N(C(=O)CNC(=O)c2ccco2)C(C(=O)NC2CCCC2)c2ccco2)cc1 (stereo not given)	inconclusive [inhibitor, single point]	
COc1ccc(-c2nn(Cc3ccccc3)cc2C(=O)N2CCN(c3ccccn3)CC2)cc1OC	inconclusive [inhibitor, single point]	
COc1ccccc1-n1c(C)cc(/C=C2\C(=N)N3N=C(CC(=O)N4CCOCC4)SC3=NC2=O)c1C	inconclusive [inhibitor, partial curve, poor fit]	
O=C(CN1CCN(c2ccc(F)cc2)CC1)Nc1nccs1		inactive: 1.16% [at 0.00184 µM]
COC(=O)C1(c2ccccc2)NC(c2ccc(O)cc2)C2C(=O)N(c3ccc4c(c3)OCO4)C(=O)C21 (stereo not given)	inconclusive [inhibitor, partial curve, poor fit]	
CC1CCN(c2ccc(/C=N\Nc3nncn3N)cc2[N+](=O)[O-])CC1	inconclusive [inhibitor, full curve, poor fit]	
CCCc1cc(NCCCn2ccnc2)n2nc(C)c(-c3ccccc3)c2n1	inconclusive [inhibitor, partial curve, poor fit]	
O=C(COc1ccc(NC(=O)c2cccs2)cc1)c1ccc(F)cc1	inconclusive [inhibitor, full curve]	
CCN(C(=O)C(C)N1C(=O)/C(=C/c2cccs2)SC1=S)C1CCS(=O)(=O)C1 (stereo not given)	inconclusive [inhibitor, single point]	
COc1cc2cc(CN(Cc3cccs3)C(=S)Nc3ccc(C)cc3)c(=O)[nH]c2cc1OC	inconclusive [inhibitor, single point]	
